PubChem BioAssay AID1346428 (National Center for Advancing Translational Sciences (NCATS), 2018)
Several values for one entry are separate records, joined by “and”; a condition that tells them apart may be missing. Identical values can stand only once. The campaign covered roughly 48,000 compounds. About 1,200 (2.5%) were called active. Another 2% or so got no clear call; they are omitted.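 How the source made its calls: active means activation of at least 60% and not above a set upper limit (about 1 call in 100 departs from these limits); inconclusive means activation of 40% to 60%, or above that upper limit; inactive means activation under 40%.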 The list shows a part of the results.

target: Probable G-protein coupled receptor 32 (Homo sapiens) (UniProt O75388); assay: qHTS for Agonists of Human Resolvin D1 Receptor DRV1; settings: CHO-K1 GPR32 beta-arrestin PathHunter luminescence, 90 min; at 76.9 µM; active compounds read high; zero percent set by DMSO-only wells; further: 0% is about no effect
In short: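 Engineered CHO-K1 line co-expressing GPR32-ProLink and EA-beta-arrestin. Compound treatment lasted 90 min at 37 °C. Luminescence was recorded after 1 h with substrate at ambient temperature, relative to DMSO basal wells.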

UniProt O75388, sequence (O75388 whole entry, looked up): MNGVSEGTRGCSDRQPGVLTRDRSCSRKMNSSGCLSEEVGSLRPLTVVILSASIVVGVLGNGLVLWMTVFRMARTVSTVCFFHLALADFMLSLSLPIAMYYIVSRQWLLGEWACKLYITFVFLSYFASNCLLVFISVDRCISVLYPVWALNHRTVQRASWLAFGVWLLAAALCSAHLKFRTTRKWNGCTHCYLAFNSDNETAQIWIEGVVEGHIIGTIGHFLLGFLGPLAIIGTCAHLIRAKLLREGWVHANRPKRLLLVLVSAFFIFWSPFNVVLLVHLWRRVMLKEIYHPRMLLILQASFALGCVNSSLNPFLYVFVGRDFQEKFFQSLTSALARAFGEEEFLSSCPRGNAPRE

activation, active:
CSc1ccc(Cn2nnc(C(=O)Nc3ccc(C)cc3Cl)c2N)cc1 98.5%
Cc1ccc(NC(=O)Cn2c(=O)oc3cc(S(=O)(=O)N4CCCCC4)ccc32)c(Cl)c1 111%

activation, inactive:
COc1ccc(CCNC(=O)c2ccc(Cn3c(=O)c4ccccc4n(Cc4cccc(C)c4)c3=O)cc2)cc1OC -19.2%
CCC1CCCCN1S(=O)(=O)c1cc(C(=O)Nc2ccc(C)c(F)c2)ccc1F (stereo not drawn) -12.6%
CCOCCCn1c(=N)c(C(=O)NC2CCCC2)cc2c(=O)n3cc(C)ccc3nc21 -9.87%
CCn1cnc2c(=O)oc3ccc(S(=O)(=O)Nc4ccc(OC)cc4)cc3c21 -2.88%
CCCCc1nn2c(=O)cc(COC(=O)c3ccc(NC(=O)C(CC)CC)cc3)nc2s1 -14.7%
Cc1ccc(NC(=O)c2cc3nc(-c4ccccc4)cc(-c4ccccc4)n3n2)cc1 -8.27%
CC(=O)c1ccc(NS(=O)(=O)c2ccc(-c3cnc(C4CC4)o3)cc2)cc1 19.9%
Cc1ccc(CNC(=O)c2cnn(-c3cccc(C)c3)c2C2CCN(C(=O)OC(C)(C)C)CC2)cc1 -21.2%
COc1ccccc1Cc1nc2ccccc2nc1SCC(=O)Nc1cc(Cl)ccc1OC -9.61%
COCCNC(=O)CSc1nc(-c2ccccc2)[nH]c1-c1ccc(OC)cc1 -25.9%
CCOC(=O)c1c(S(=O)(=O)N2CCC(C(=O)Nc3ccc(C)cc3C)CC2)c(C)n(C)c1C -8.69%
Cc1cc(C)cc(NC(=O)c2cnc3sc(N4CCCC4)nn3c2=O)c1 -1.6%
COc1cccc(-n2c(SCC(=O)Nc3nnc(C)s3)nc3c([nH]c4ccccc43)c2=O)c1 -46.7%
Fc1ccc2[nH]c(-c3cccs3)cc2c1 19.3%
CC(C)Cn1c(=O)c2sccc2n2c(CCCC(=O)N3CCN(c4ccc(F)cc4)CC3)nnc12 0.4%
Cc1cc(CN2CCN(c3cccc(C)c3C)CC2)cs1 -19.8%
CCOc1ccc(NC(=O)C2CCCN(S(=O)(=O)c3c(C)noc3/C=C/N(C)C)C2)cc1 (stereo not drawn) -16.6%
CCOC(=O)C1=C(CN2CCN(c3ccc(OC)cc3)CC2)NC(=O)NC1c1ccc(Cl)cc1 (stereo not drawn) 7.12%
O=C(Nc1cccc(C(F)(F)F)c1)c1cc2nc(-c3ccc4c(c3)OCO4)cc(C(F)(F)F)n2n1 6.61%
CC(C)(C)C(O)/C=C/c1ccc2c(c1)OCO2 (stereo not drawn) 29%
Cc1ccc(Cn2cc(C(=O)c3ccc4c(c3)OCO4)c(=O)c3cc(C)ccc32)cc1 -22.6%
COc1ccc(C)cc1NC(=O)N1CC(C)Sc2ccccc21 (stereo not drawn) -29.6%
Cc1ccc(-c2nc(CSc3nncn4c3cc3occc34)c(C)o2)cc1 -26.2%
NCCc1nc2cccnc2n1-c1ccccc1 -5.23%
CC1=C(C(=O)Nc2ccc(C)cc2C)C(c2ccc(C(=O)O)cc2)n2nc(SCc3ccccc3)nc2N1 (stereo not drawn) -0.943%
Cc1ccc2c(c1)c1c(c(=O)n(-c3ccccc3)c(=O)n1CC(=O)c1ccc(F)cc1)n2C 5.37%
CCOc1ccc(CNC(=O)CC(C)n2nc(C)cc2C)cc1OC (stereo not drawn) -5.51%
Cc1ccc(NC(=O)c2ccc(CN3CC(=O)N4CCCCC4C3=O)cc2)cc1 (stereo not drawn) -20.9%
CCc1nn2c(=O)cc(COC(=O)c3ccc(NC(=O)COc4ccc(C)cc4)cc3)nc2s1 -7.6%
Cn1c(SCC(=O)N2CCCc3ccccc32)ncc(C(=O)Nc2ccccc2)c1=O -6.96%
CCc1cccc(NC(=O)Cn2c(=O)n(-c3cccc(Cl)c3)c(=O)c3c2c2cc(C)ccc2n3C)c1 -8.78%
COc1ccc(OC)c(CNC(=O)c2cnc3c(C)cccn3c2=O)c1 -4.92%
CCN(c1ccccc1)S(=O)(=O)c1ccc(-c2cc(C)no2)s1 -30.3%
Cc1cc(C)cc(NC(=O)CSc2nc(=O)n(Cc3ccccn3)c3c2CCC3)c1 -0.987%
CCOC(=O)C(C)Sc1nc(-c2ccccc2Cl)cc(-c2ccccc2)c1C#N (stereo not drawn) -2.25%
CC[C@]1(O)C[C@@H]2CN(CCc3c([nH]c4ccccc34)[C@@](C(=O)OC)(c3cc4c(cc3OC)N(C)[C@H]3[C@@](O)(C(=O)OC)[C@H](OC(C)=O)[C@]5(CC)C=CCN6CC[C@]43[C@@H]65)C2)C1 -33.1% and 3.05%
Cc1ccc(C(=O)COC(=O)C(Cc2c[nH]c3ccccc23)NC(=O)c2ccc(C(C)(C)C)cc2)cc1 (stereo not drawn) -16.5%
Cc1ccccc1C(=O)Nc1cccc(C(=O)OCc2cc(=O)n3ccsc3n2)c1 3.08%
Cc1ccc2[nH]c(=O)c(CN(C(=O)c3cccc(Cl)c3)C(C)(C)C)cc2c1 8.45%
COc1ccc(-n2cc(-c3ccccc3)c3c(NC4CCCC4)ncnc32)cc1 -35.2%
Cc1cccc(Oc2nc3c(c(=O)n(C)c(=O)n3C)n2Cc2ccccc2)c1C 21.3%
Cc1cccc(C)c1OCc1cc(=O)n2c3c(sc2n1)CCCC3 22.5%
CC(C)CC(=O)Nc1cc(-c2ccccc2F)nn1-c1ccccc1 -17.5%
COCCNC(=O)Cn1c(=O)n(CCCCCC(=O)NCc2ccccc2Cl)c(=O)c2sccc21 -21.8%
c1ccc(-c2noc(-c3cccnc3NCc3ccco3)n2)cc1 -5.5%
Cc1cccc(Cn2c(SCc3ccc(C(=O)NCc4ccccc4F)cc3)nc3ccncc32)c1 -6.81%
CCN(CC)CCCNC(=O)CCCn1ncn2c(cc3occc32)c1=O -6.87%
COc1ccc(CN(C(=O)c2cc3ccccc3oc2=O)C2CCS(=O)(=O)C2)cc1OC (stereo not drawn) -4.95%
CC1CCCCN1C(=O)Cn1ncc2c3ccccc3n(Cc3ccccc3F)c2c1=O (stereo not drawn) -19.3%
CC(C)(C)C1CCc2c(sc3nc(-c4cc5ccccc5oc4=O)[nH]c(=O)c23)C1 (stereo not drawn) 10.8%
COc1ccccc1-c1noc(-c2ccc(NC3CCCCC3)c([N+](=O)[O-])c2)n1 11.5%
CCCCN(CCCNC(=O)CN1N=C(c2ccc(C)cc2)CCC1=O)c1ccccc1 -5.96%
COc1cccc(NC(=O)CCc2nc3c(C)nn(-c4ccc(C)cc4)c3n(C)c2=O)c1 6.02%
COCCCNC(=O)c1cnc2sc(N3CCCCCC3)nn2c1=O 4.43%
Cc1ccc2c(c1)-c1c(cnn1CC(=O)N1CCN(c3ccccc3F)CC1)CO2 -14.5%
O=c1c(=O)n(Cc2ccc(Cl)cc2)ccn1Cc1ccc(F)cc1 -8.12%
COc1ccc(-c2cn3cccnc3n2)cc1NC(=O)Cc1ccccc1 -6.97%
Cc1oc2ncn(CC(C)C)c(=O)c2c1C(=O)NCCc1ccccc1 -1.62%
COc1cccc(OCC(=O)NCCS(=O)(=O)N2CCN(c3ccccc3F)CC2)c1 -25.7%
Cc1cc(C)n2c(Nc3ccc(C(C)C)cc3)c(-c3ccsc3)nc2n1 -30.1%
CCN(CC)C(=O)CSc1nc2ccsc2c(=O)n1Cc1ccccc1Cl -33.5%
CCc1nc2cccnc2n1-c1ccc(CC(=O)Nc2c(C)cccc2C)cc1 0.209%
C[C@@H](C1=C(CCN(C)C)Cc2ccccc21)c1ccccn1 9.08%
O=C(CCN1CCN2CCCC2C1)N1c2ccccc2Sc2ccc(Cl)cc21 (stereo not drawn) -5.23%
Cc1ccc(OCC(=O)NCC2(N(C)C)CCCCC2)cc1C 12.6%
Cc1ccc(C)c(NC(=O)Cn2c(=O)n(-c3ccc(CC(=O)NCC4CCCO4)cc3)c(=O)c3ccccc32)c1 (stereo not drawn) 0.118%
CCCCC(CC)COC(=O)c1ccccc1O (stereo not drawn) -11.4%
Cc1ccc(NC(=O)c2c(C)nc3sc(C(=O)Nc4ccc(F)cc4)c(N)c3c2-c2ccc(C)o2)c(C)c1 -13.8%
Cc1ccc(CNc2oc(-c3ccc(COc4ccc(C)cc4)o3)nc2C#N)cc1 -25.4%
CCCOc1ccc(C(=O)NCC2OCCc3ccccc32)cc1 (stereo not drawn) 7.25%
CC1CN(C(=O)CCC(=O)Nc2cc(F)ccc2F)c2ccccc2S1 (stereo not drawn) -21.8%
COc1ccc(C(=O)Nc2ccc3oc(-c4ccc(F)cc4Cl)nc3c2)cc1 23.1%
CCCc1nc2ccccc2n1CC(O)COc1ccc(C(=O)OC)cc1 (stereo not drawn) -11.6%
CCOC(=O)C1CCCN(C(=O)Cn2ncc3c(C)n(Cc4ccccc4Cl)c(C)c3c2=O)C1 (stereo not drawn) -2.31%
CCc1ccc(CNC(=O)c2cc3ccccn3n2)cc1 3.01%
COc1ccc(C2C(C(=O)Nc3ccc(Cl)cc3)=C(C)Nc3nc(SCc4cccc(C)c4)nn32)cc1OC (stereo not drawn) -5.02%
COCCCN1C(=O)c2ccccc2CC1(C)C(=O)NC1CCCCC1 (stereo not drawn) -8.23%
CCC1CCCCN1S(=O)(=O)c1ccc(C(=O)Nc2sc3c(c2C(N)=O)CCC3)cc1 (stereo not drawn) -20.9%
O=C(Nc1ccc(Cl)cc1F)c1cnc2sc(N3CCOCC3)nn2c1=O 6.08%
CCN(CCCc1ccccc1)CCCc1ccccc1 30.6%
Cc1ccc2nc(NC(=O)CSc3nccn3-c3ccc(Cl)cc3)sc2c1 13.6%
